Out of some 350,000 compounds screened, about 31,000 (8.9%) were called active. The shares of active, inactive and inconclusive entries below differ from those in the screen. The call rests on the fitted dose curve; in most records, active means well fitted inhibition curve with a large enough effect; inconclusive means small, poorly fitted or top-dose-only effect; inactive means no such curve, though single readings can be large or run the other way. Where the call is inconclusive, the potency comes from a doubtful curve fit.
Each molecule was assayed against Histone-lysine N-methyltransferase EHMT2 (Homo sapiens) (UniProt Q96KQ7) (assay: qHTS Assay for Inhibitors of Histone Lysine Methyltransferase G9a). Conditions: G9a H3K9 monomethylation, AlphaScreen, 2 h; activity, negative = inhibition: at 59 µM (top of the series) unless noted.
Chain of UniProt Q96KQ7 (Q96KQ7 whole entry, looked up): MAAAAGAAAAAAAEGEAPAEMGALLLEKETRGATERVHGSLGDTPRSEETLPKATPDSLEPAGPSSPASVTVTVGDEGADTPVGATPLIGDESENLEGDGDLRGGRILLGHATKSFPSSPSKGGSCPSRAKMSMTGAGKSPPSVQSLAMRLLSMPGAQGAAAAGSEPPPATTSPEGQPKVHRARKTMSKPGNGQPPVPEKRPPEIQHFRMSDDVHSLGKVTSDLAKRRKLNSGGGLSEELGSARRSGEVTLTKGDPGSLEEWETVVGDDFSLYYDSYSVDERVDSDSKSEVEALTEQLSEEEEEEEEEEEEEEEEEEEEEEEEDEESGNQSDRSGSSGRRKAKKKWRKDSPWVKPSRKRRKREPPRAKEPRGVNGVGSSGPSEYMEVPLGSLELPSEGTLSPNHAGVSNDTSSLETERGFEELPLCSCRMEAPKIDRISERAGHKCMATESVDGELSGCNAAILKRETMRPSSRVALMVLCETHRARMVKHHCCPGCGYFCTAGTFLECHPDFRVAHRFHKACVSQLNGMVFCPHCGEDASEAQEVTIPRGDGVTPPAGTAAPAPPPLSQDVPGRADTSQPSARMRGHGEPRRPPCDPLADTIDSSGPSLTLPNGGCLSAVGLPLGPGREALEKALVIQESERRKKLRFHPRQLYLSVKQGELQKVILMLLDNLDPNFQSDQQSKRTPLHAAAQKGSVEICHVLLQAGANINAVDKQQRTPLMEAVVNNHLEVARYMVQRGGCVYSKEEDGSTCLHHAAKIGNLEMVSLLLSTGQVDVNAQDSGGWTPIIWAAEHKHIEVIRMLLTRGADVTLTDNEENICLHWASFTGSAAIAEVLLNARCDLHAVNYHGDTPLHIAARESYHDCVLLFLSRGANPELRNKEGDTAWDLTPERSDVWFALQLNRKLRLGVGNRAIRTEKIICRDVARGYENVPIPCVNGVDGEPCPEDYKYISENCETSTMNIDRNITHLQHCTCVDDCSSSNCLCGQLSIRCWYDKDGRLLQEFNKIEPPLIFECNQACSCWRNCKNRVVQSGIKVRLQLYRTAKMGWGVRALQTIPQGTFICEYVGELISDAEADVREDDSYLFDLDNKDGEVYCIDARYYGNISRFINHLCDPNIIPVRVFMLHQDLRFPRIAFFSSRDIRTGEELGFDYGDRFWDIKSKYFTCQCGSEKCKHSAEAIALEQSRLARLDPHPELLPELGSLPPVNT
Method in brief: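 Step 1: enzyme (final 20 nM) with compound, 15 min RT. Step 2: substrate peptide 500 nM and SAM 20 uM, 2 h RT. Step 3: anti-H3K9me1 antibody and AlphaScreen beads, 10 min, then plate read.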
Further: nearly all actives have a fitted effect of over 75% in size.
On the % scale 0 is the no-effect control and ±100 the full control effect; potency means the concentration at half of the fitted maximal effect; tags describe the fitted curve by direction and shape.

Structure (SMILES)	Potency	activity, negative = inhibition
COCC(=O)N1CCC(Oc2ccc(C(=O)N3CCSCC3)cc2)CC1	inactive	
COc1ccc(NC(=O)Cn2nnc(C(=O)NCc3ccccc3OC)c2N)cc1Cl	inconclusive: 3.98 µM [inhibitor, single point]	
COc1cc(-c2nnc(COC(=O)c3c4c(nc5ccccc35)CCCC4)o2)cc(OC)c1OC	inactive	
COc1ccc(CC(=O)NNC(=O)CSc2nnc(Cc3ccc(OC)cc3)n2-c2ccccc2)cc1	active: 10 µM	
COc1ccc(NC(=O)c2ccco2)cc1NC(=O)c1cccc(C)c1OC	inactive	
CCCCn1c(-c2csc(C(C)C)c2)n[nH]c1=S	active: 3.98 µM	
CC(=O)c1ccc(OCCCC(=O)Nc2cccc(S(=O)(=O)N3CCCCC3)c2)cc1	inconclusive: 3.16 µM [inhibitor, single point]	
CC(C)OC(=O)c1c2c(n3ccccc13)C(=O)c1ccccc1C2=O	inconclusive: 31.6 µM [inhibitor, single point]	
O=C(NNS(=O)(=O)c1ccc(Br)cc1)c1ccncc1		inactive: 38.7% [at 0.501 µM]
CC1(C)CC(=O)c2sc(NC(=O)C3COc4ccccc4O3)nc2C1 (stereo not given)	inconclusive: 0.708 µM [inhibitor, full curve, poor fit]	
CCC1Oc2ccccc2N(CC(=O)N2CCOCC2)C1=O (stereo not given)	inactive	
Cc1cc(O)c(C(C[N+](=O)[O-])c2ccc(Cl)cc2)c(=O)o1 (stereo not given)	inconclusive: 10 µM [inhibitor, full curve, poor fit]	
Cc1ccc(SCC(=O)Nc2ccc(O)c(-c3nc4cc(C)ccc4o3)c2)cc1	inactive	
Cc1ccc2c(C)nc(/N=C(\N)NC(=O)N3c4ccccc4Sc4ccccc43)nc2c1	inactive	
CCC(Sc1ccc2nnc(-c3ccc(F)cc3)n2n1)C(=O)O (stereo not given)	inconclusive: 31.6 µM [inhibitor, full curve, poor fit]	
CCOC(=O)c1[nH]c(C)c(C(=O)NC2CCCCC2)c1C	active: 79.4 µM	
O=C(O)CCc1ccc(-c2ccc(Cl)cc2)n1Cc1ccco1		inconclusive: -88.8% [inhibitor]
Cc1ccc(CNC(=O)CCCCCn2c(=O)c3sccc3n(CC(=O)C(C)(C)C)c2=O)cc1	inactive	
CCOCCCn1c(=S)[nH]c2cc3c(cc2c1=O)OCO3		inconclusive: -85% [inhibitor]
Cc1cc2c(nc1C)CCCN2C[C@@H](C)O/N=C1/[C@H]2CCn3c(=O)n(-c4ccccc4)c(=O)n3[C@H]2[C@H](O)[C@@H]2O[C@H]12	inconclusive: 79.4 µM [inhibitor, single point]	
CCN(CC)CCNC(=O)c1cc2c(-c3ccc(Cl)cc3)nn(C)c2s1	inconclusive: 79.4 µM [inhibitor, partial curve, poor fit]	
CC1(C)CC(NC(=O)c2coc(=O)c(Br)c2)CC(C)(C)N1	inactive	
O=C(Nc1ccccc1)C1CCN(S(=O)(=O)c2ccc3c(c2)CCCN3C(=O)C2CCC2)CC1	inactive	

Structure (SMILES)	Potency	activity, negative = inhibition
CC(C(=O)OCC(=O)c1ccc([N+](=O)[O-])cc1)N1C(=O)C2C3CCC(C3)C2C1=O (stereo not given)	inconclusive: 63.1 µM [inhibitor, single point]	
Cc1ccc(C)c(N2CCN(C(=O)c3ccc(NS(=O)(=O)c4c(C)noc4C)cc3)CC2)c1		inconclusive: -51% [inhibitor] [at 102 µM]
c1cncc(-c2nn3c(Cn4cnc5ccccc54)nnc3s2)c1	inconclusive: 2 µM [inhibitor, partial curve, poor fit]	
Cc1ccc(NC(=O)N/C=C/c2ccco2)c(C)c1	inconclusive: 20 µM [inhibitor, single point]	
O=C(CN1CCN(C2CCCCC2)CC1)Nc1ccccc1-c1ccccc1	inconclusive: 5.62 µM [inhibitor, full curve, poor fit]	
CCOc1cc(CNC(=O)CSc2n[nH]c(-c3ccccc3)n2)cc(OCC)c1OCC	inactive	
O=C(COC(=O)c1ccccc1O)Nc1ncc(Cl)cc1Cl	active: 35.5 µM	
CC(C)=C1C2CCC1C1C(=O)N(c3nc(-c4ccccc4)c(C)s3)C(=O)C21 (stereo not given)	inactive	
Cc1ccc(CNC(=O)C(C(=O)NCc2ccc(C)o2)c2ncc(C(F)(F)F)cc2Cl)o1	inconclusive: 28.2 µM [inhibitor, partial curve]	
COC(=O)c1cc(NC2(c3ccccc3)C(=O)c3ccccc3C2=O)cc(C(=O)OC)c1	inactive	
Cc1ccc(Cl)cc1N(C)C(=O)c1sc2nc3n(c(=O)c2c1C)CCCC3	active: 12.6 µM	
O=C(CSc1nnc(-c2cccs2)n1C1CC1)NCC1CCCO1 (stereo not given)		inactive: 8.25% [at 2.33 µM]
O=C(c1ccc(Br)s1)N1CCN(c2ncccn2)CC1	inconclusive: 28.2 µM [inhibitor, single point]	
Cc1cccc(OCCCC(=O)Nc2ccc(S(=O)(=O)Nc3onc(C)c3C)cc2)c1	inconclusive: 50.1 µM [inhibitor, partial curve, poor fit]	
CCCSc1nnc(Cn2c(=O)sc3ccccc32)n1-c1ccccc1	inconclusive: 89.1 µM [inhibitor, partial curve, poor fit]	
COc1ccc(Nc2ncc(C(=O)Nc3cccc(OC)c3)c3ccccc23)cc1	inactive	
C=C[C@@H]1c2cc(C)ccc2N(S(=O)(=O)c2ccc(C)cc2)[C@H](c2ccccc2C(F)(F)F)C1(C#N)C#N		inactive: 89.2% [at 2.33 µM]
CCOCc1cnc(C)nc1NCC(=O)c1c(C)[nH]c2cc(C)ccc12		inconclusive: -106% [inhibitor]
S=c1[nH]c2ccccc2n2c(=S)[nH]nc12	active: 1.78 µM	
Cc1ccc(S(=O)(=O)N2CCC(C(=O)OCC(=O)N(C)CC(=O)Nc3ccc(F)cc3)CC2)cc1C	inconclusive: 50.1 µM [inhibitor, partial curve, poor fit]	
Cc1c(C)n2c(SCC(=O)N3CCCCCC3)nnc2[nH]c1=O	inconclusive: 7.08 µM [inhibitor, partial curve, poor fit]	
CCc1ccc(CN(C)C(=O)C2CCC(=O)N(CC3CCCCC3)C2)cc1 (stereo not given)	inactive	

From PubChem BioAssay AID504332 (National Center for Advancing Translational Sciences (NCATS), 2011)
